This note sets out measurements from publication PMC6212790.

The other results are listed elsewhere or left out. At the low end of the ranking the order means little.

In this assay the target is T1, GST-Rok (full length) (UniProt O34857).
T1 sequence: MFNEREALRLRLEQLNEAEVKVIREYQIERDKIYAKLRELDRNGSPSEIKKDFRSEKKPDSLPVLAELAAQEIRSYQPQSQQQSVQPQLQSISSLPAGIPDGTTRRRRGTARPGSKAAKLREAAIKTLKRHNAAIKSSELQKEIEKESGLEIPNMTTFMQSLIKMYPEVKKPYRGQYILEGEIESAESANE
Nature of the assay: protein binding microarray.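 Note: rank score from −0.5 (least bound) to 0.5 (best bound).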 To be noted: Rok is a gene silencer of Bacillus subtilis; high values mean tight binding; most listed sequences are background and not binding sites; double strand, one strand shown.
GAACCGTC returned a binding signal of -0.0491 E-score.

Sequence GGTGCCCA showed a binding signal of -0.251 E-score.

ATGCCTCA gave a binding signal of -0.0433 E-score.

On to CTACCTGA, for which the binding signal worked out at 0.178 E-score.

In turn, GCTGACGA returned a binding signal of -0.167 E-score.

For GGATCTGA, the binding signal was -0.101 E-score.

As for GATAGCAA, the binding signal is 0.189 E-score.

As to ACCGTCTC, the binding signal was -0.0829 E-score.

GTGTGAGA registered a binding signal of -0.0423 E-score.

GGAGCTAA displayed a binding signal of 0.0195 E-score.

The sequence AATCAATT displayed a binding signal of 0.145 E-score.

As to AGGTGTGC, the binding signal was -0.104 E-score.

As to GAGCGTGA, the binding signal is -0.162 E-score.

For CATCCTTC, the binding signal is -0.203 E-score.

The sequence GGGTTCCA gave a binding signal of -0.294 E-score.

AAACAACC registered a binding signal of -0.173 E-score.

For ATGCTGCC, the binding signal was -0.0694 E-score.

GGTTCACA registered a binding signal of -0.117 E-score.

The sequence AACCTTTG had a binding signal of -0.0196 E-score.

Regarding CATGTTGG, the binding signal was -0.0439 E-score.

With GTCAAGCA, the binding signal amounted to 0.0932 E-score.

In turn, CCTTCTCC returned a binding signal of -0.334 E-score.

As to CAGCATGA, the binding signal is 0.0825 E-score.

Turning to GCCCTCAC, the binding signal is -0.352 E-score.

The sequence GCCGATTA gave a binding signal of -0.165 E-score.

As for CCCGCCTA, the binding signal is -0.261 E-score.

Sequence CGATGGCG had a binding signal of -0.281 E-score.

Consider CACAGTGC, for which the binding signal was 0.0156 E-score.

CTTCCGGC displayed a binding signal of -0.387 E-score.

Sequence GCATTGTA gave a binding signal of 0.152 E-score.

As to AGCGCAAT, the binding signal is 0.0762 E-score.

CCGCCTTA: the binding signal is -0.153 E-score.

In the case of CACAAAGG, the binding signal is -0.246 E-score.

Sequence AGCCCTCA displayed a binding signal of -0.175 E-score.

For the sequence TGCTCGAA, the binding signal was -0.0417 E-score.

In the case of GCGCCTGA, the binding signal is -0.392 E-score.

CGATATGC returned a binding signal of 0.0317 E-score.

For CAATTCTG, the binding signal was -0.0253 E-score.

For GCGGAAAA, the binding signal is 0.129 E-score.

ACTCTTTA came in with a binding signal of 0.143 E-score.

ACGCGTTC had a binding signal of 0.00292 E-score.

ACTTGTTC came in with a binding signal of 0.145 E-score.

For CGCGGCAC, the binding signal is -0.266 E-score.

Sequence CCGTGCTC yielded a binding signal of -0.174 E-score.

CGTTCTTA: the binding signal came to 0.0939 E-score.

In the case of AACGCCTC, the binding signal is -0.187 E-score.

Take ACAAAGGT: the binding signal was 0.032 E-score.

As for ACGGCGAT, the binding signal is -0.151 E-score.

With ATCTTTCG, the binding signal stood at 0.109 E-score.

Consider ACTCTCAG, for which the binding signal turned out to be 0.00612 E-score.

GGTACGAA came in with a binding signal of 0.0735 E-score.

With GACAAGTA, the binding signal came to 0.0991 E-score.

With ACGGCAGT, the binding signal was -0.2 E-score.

On to GCAAATCA, for which the binding signal worked out at 0.0652 E-score.

ACCACCAG came in with a binding signal of -0.145 E-score.

With AGGCAAAA, the binding signal was found to be 0.0293 E-score.

CCACTGTC yielded a binding signal of -0.188 E-score.

The sequence CCAGGCTC showed a binding signal of -0.295 E-score.

The sequence ACCCTGCT showed a binding signal of -0.204 E-score.

In turn, CAGGCGAG returned a binding signal of -0.272 E-score.

The sequence ACGGGGCG came in with a binding signal of -0.468 E-score.

Sequence GATCGGGC registered a binding signal of 0.00756 E-score.

Consider ATTGTGAG, for which the binding signal was 0.0581 E-score.

As to CAATAATG, the binding signal was 0.0655 E-score.

TCATATAA returned a binding signal of 0.192 E-score.

Sequence ATATCTAA displayed a binding signal of 0.371 E-score.

In turn, CGAATTCG came in with a binding signal of 0.207 E-score.

With CCGGGCCG, the binding signal was -0.335 E-score.

In turn, ATTAAGCG returned a binding signal of 0.214 E-score.

Regarding CGAAGGAG, the binding signal was -0.162 E-score.

The sequence AAGTAACG returned a binding signal of 0.116 E-score.

ACTCGGAG had a binding signal of -0.246 E-score.

Turning to TGCGGCAA, the binding signal stood at 0.043 E-score.

On to ACGCCCTA, for which the binding signal was -0.251 E-score.

In turn, GACGTCAA returned a binding signal of 0.0734 E-score.

With ACTAACTG, the binding signal stood at 0.163 E-score.

Turning to TGTGGTAA, the binding signal was 0.217 E-score.

In turn, ACGCGAAC registered a binding signal of -0.0469 E-score.

Regarding CTGCACTA, the binding signal turned out to be 0.0357 E-score.

The sequence TCTCTCAA registered a binding signal of -0.0745 E-score.

ATCCCTGG returned a binding signal of -0.27 E-score.

The sequence AGGTTCGG returned a binding signal of -0.0855 E-score.

The sequence AGCGAATC showed a binding signal of -0.027 E-score.

ACTACGAT showed a binding signal of 0.335 E-score.

Take ACCATCGG: the binding signal is -0.056 E-score.

Consider AGAGGGGG, for which the binding signal is -0.422 E-score.

In turn, GATCCCTA yielded a binding signal of -0.206 E-score.

Sequence ATATGCAT yielded a binding signal of 0.276 E-score.

In turn, ATGAGAGC had a binding signal of -0.141 E-score.

Sequence ACAAGACG showed a binding signal of -0.0878 E-score.

ACGCCGTA: the binding signal was -0.0717 E-score.

Consider ACTGTGAC, for which the binding signal worked out at 0.0552 E-score.

The sequence GAAGAATA returned a binding signal of 0.121 E-score.

GGACAGCC displayed a binding signal of -0.301 E-score.

Sequence AGAGTCGA gave a binding signal of -0.0761 E-score.

On to TAAACAGA, for which the binding signal was -0.1 E-score.

GCTATCTA gave a binding signal of 0.33 E-score.

Regarding CCCGGAGA, the binding signal is -0.232 E-score.

In the case of CGACTCCA, the binding signal is -0.18 E-score.

In turn, ACCGGAAT yielded a binding signal of 0.189 E-score.

Consider AGTATGTA, for which the binding signal was determined as 0.323 E-score.

In turn, AATATGGT gave a binding signal of 0.215 E-score.

TATTCAAA registered a binding signal of 0.0337 E-score.

As to ACCGGTGC, the binding signal is -0.301 E-score.

AGTCGTAC displayed a binding signal of 0.0618 E-score.

As to TACGGTCA, the binding signal was determined as 0.238 E-score.

Sequence CCTCGGGC registered a binding signal of -0.201 E-score.

Sequence ATAATCTA came in with a binding signal of 0.352 E-score.

For CCTAGCAG, the binding signal is -0.23 E-score.

CCACACTA had a binding signal of 0.203 E-score.

For CACCAATA, the binding signal turned out to be 0.192 E-score.

TAACATAA had a binding signal of 0.15 E-score.

As for CCAGCAAA, the binding signal is -0.241 E-score.

For the sequence CCTTATCA, the binding signal was found to be 0.137 E-score.

With ACTATTGG, the binding signal was 0.208 E-score.

The sequence GCGTACGA displayed a binding signal of 0.0471 E-score.

CGGGCGCC had a binding signal of -0.435 E-score.

Take CCTGTTCG: the binding signal was -0.118 E-score.

The sequence CGCGGCTC yielded a binding signal of -0.293 E-score.

As to GGCAAGCC, the binding signal is -0.313 E-score.

The sequence AAGAGATG showed a binding signal of -0.0176 E-score.

In turn, TATGAACA showed a binding signal of 0.0378 E-score.

Consider AAAGTGTC, for which the binding signal is -0.00949 E-score.

With GCAGGAAC, the binding signal is -0.0908 E-score.

ATTTCACC registered a binding signal of -0.0341 E-score.

In turn, ACGTTACT showed a binding signal of 0.0871 E-score.

Consider CTATACTA, for which the binding signal is 0.288 E-score.

On to GTACAACA, for which the binding signal came to 0.0355 E-score.

CAGCATTA yielded a binding signal of 0.152 E-score.

For the sequence ACAACACC, the binding signal is -0.0309 E-score.

For AGCTTAAA, the binding signal was 0.0809 E-score.

For the sequence GACGCAGA, the binding signal is -0.102 E-score.

As to GGTTACAA, the binding signal came out at 0.12 E-score.

Sequence GGTCGCTA showed a binding signal of -0.0341 E-score.

In turn, AGTCATCC returned a binding signal of -0.081 E-score.

In turn, CAGTGTGG had a binding signal of -0.177 E-score.

Take GACTAGAC: the binding signal is -0.353 E-score.

In turn, CAGTGGCC gave a binding signal of -0.139 E-score.

As to GATGCTTA, the binding signal was -0.014 E-score.

CTATGTTA: the binding signal was found to be 0.285 E-score.

Sequence CCCTGTCG had a binding signal of -0.116 E-score.

GACCGCAA yielded a binding signal of 0.0358 E-score.

CACTGTTA displayed a binding signal of 0.0957 E-score.

Consider ACAAGAGC, for which the binding signal is -0.151 E-score.

Regarding CCATGCCA, the binding signal was -0.243 E-score.

Sequence CATACCAA gave a binding signal of 0.214 E-score.

CCTAATTA showed a binding signal of 0.228 E-score.

CCCCCCCA came in with a binding signal of -0.406 E-score.

As to CCGTCAAC, the binding signal was -0.163 E-score.

CTGGCCCC yielded a binding signal of -0.304 E-score.

The sequence CAAAGTAA gave a binding signal of 0.19 E-score.

Consider ACCGGCCT, for which the binding signal is -0.135 E-score.

In the case of CGCCCTCC, the binding signal is -0.396 E-score.

CGGATCTC displayed a binding signal of -0.0657 E-score.

In turn, AGGCGGGA came in with a binding signal of -0.284 E-score.

In turn, TCGTCTAA had a binding signal of -0.11 E-score.

As for ACGGACGC, the binding signal is -0.266 E-score.

Regarding GTTGTCCA, the binding signal was -0.109 E-score.

Turning to ACTTAGAT, the binding signal was 0.178 E-score.

Consider ACAGGTAC, for which the binding signal was determined as 0.127 E-score.

Consider GTTGGTGA, for which the binding signal was -0.00845 E-score.

Regarding TATAGCAA, the binding signal worked out at 0.279 E-score.

AGTCTATA yielded a binding signal of 0.199 E-score.

Sequence GCCAAACA gave a binding signal of -0.0134 E-score.

For the sequence ACCTTGCA, the binding signal is 0.00836 E-score.

The sequence GTGCAAAA yielded a binding signal of 0.0784 E-score.

With CCCGATAG, the binding signal came out at 0.0924 E-score.

CCCTCAAG had a binding signal of -0.33 E-score.

In turn, CCGTGAGC displayed a binding signal of -0.28 E-score.

The sequence CCAGGGAA displayed a binding signal of -0.236 E-score.

The sequence GAGCGGAA gave a binding signal of -0.238 E-score.

Consider TCCACAGA, for which the binding signal was -0.0426 E-score.
